According to PubChem BioAssay (NCI):
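Exposure lasted 48 hours, with cells grown in 96-well plates and compounds tested at five concentrations. At the GI50, growth is halved. Definition used: TGI = concentration required for complete inhibition of growth.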

Each compound was assayed on NCI-H322M lung (assay: inhibition of tumour cell growth, NCI panel, 48 h).

SMILES	GI50 [µM]	TGI [µM]
CC(C)=CCc1c(O)c(CC=C(C)C)c2c(c1O)C(=O)C1=C[C@@H]3C[C@H]4C(C)(C)O[C@@](C/C=C(\C)C(=O)O)(C3=O)[C@@]14O2	28.7	98.9
C#Cc1nc(/C=C/CCCCCCC(=O)NO)cs1	17.2	> 100
CN1CCN(Cc2ccc(NC(=O)c3cncc(C#Cc4cnc(N)nc4)c3)cc2C(F)(F)F)CC1	0.41	13.7
